According to patent US20240254223A1 (NOVIMMUNE, published 2024):

Target: T1, His-tagged human CD47 (human, UniProt Q08722 in part, limits assumed)
T1 construct: loaded on HIS1K biosensors at 2.5 µg/mL; also called target antigen; not shown: His tag
Experiment: BLI, His-CD47 on HIS1K sensor, antibody 15 µg/mL
Procedure: The capacity of the masking domains to inhibit binding activity of the antibody was evaluated by Bio-Layer Interferometry (BLI). […] Binding experiments were performed to evaluate the masking efficiency and the binding recovery after cleavage of the masking domains. BLI was performed on an Octet RED96 system (Sartorius). His-tagged human CD47 was diluted at 2.5 μg/mL in Kinetic Buffer (KB) (Sartorius) and loaded on HIS1K biosensors (anti-His tag antibody biosensors, Sartorius) for 300 seconds. Loaded biosensors were dipped into antibodies diluted at 15 μg/mL in KB for 300 seconds to monitor association. Then, biosensors were transferred in KB for dissociation for 60 seconds. Binding profiles were then analyzed with ForteBio Data Analysis software.

T1 sequence (Q08722 19-139 limits assumed): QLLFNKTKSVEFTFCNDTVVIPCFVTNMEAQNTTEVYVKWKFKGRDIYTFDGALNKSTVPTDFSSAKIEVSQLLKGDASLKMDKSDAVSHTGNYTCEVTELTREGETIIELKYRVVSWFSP

Binding before cleavage (BLI): 0.9 nm
B1: pNOVI V2K K91_IL15_CM1_VKCK_IL15Rα_Sushi 1_CM1_VHCH (antibody)
light: [about 120 residues left out]GGGGSVHMPLGFLGPGGSDIQMTQSPSSLSASVGDRVTITCNVDQVIANWLNWYQQKPGKAPKLLIYAASSLQSGVPSRFSGSGSGTDFTLTISSLQPEDFATYYCQQMHPRAPKQFGQGTKVEIKRTVAAPSVFIFPPSDEQLKSGTASVVCLLNNFYPREAKVQWKVDNALQSGNSQESVTEQDSKDSTYSLSSTLTLSKADYEKHKVYACEVTHQGLSSPVTKSFNRGEC
heavy: ITCPPPMSVEHADIWVKSYSLYSRERYICNSGFKRKAGTSSLTECVLNKATNVAHWTTPSLKCIRDGGGGSVHMPLGFLGPGGS[about 120 residues left out][about 100 residues left out][human IgG1 Fc left out]
notes: masked K91 fusion, uncleaved; 35% aggregates; also called n81; construct No 81
